The campaign covered roughly 220,000 compounds. About 16,000 (7.3%) were called active. Inconclusive results, whose numbers are uncertain, are shown with a selection of clear calls. The call rests on the fitted dose curve; in most records, active means well fitted inhibition curve with a large enough effect (not every such curve was filed as active); inconclusive means small, poorly fitted or top-dose-only effect, or another doubt; inactive means no such curve, though single readings can be large or run the other way. Potencies of inconclusive entries are doubtful fits and often do not repeat.
These molecules were tested against Aldehyde dehydrogenase 1A1 (Homo sapiens) (UniProt P00352) (assay: qHTS Assay for Inhibitors of Aldehyde Dehydrogenase 1 (ALDH1A1)). Settings: Purified ALDH1A1, NADH fluorescence, propionaldehyde substrate; series mostly up to 75.3 µM.
Sequence of UniProt P00352 (P00352 whole entry, looked up): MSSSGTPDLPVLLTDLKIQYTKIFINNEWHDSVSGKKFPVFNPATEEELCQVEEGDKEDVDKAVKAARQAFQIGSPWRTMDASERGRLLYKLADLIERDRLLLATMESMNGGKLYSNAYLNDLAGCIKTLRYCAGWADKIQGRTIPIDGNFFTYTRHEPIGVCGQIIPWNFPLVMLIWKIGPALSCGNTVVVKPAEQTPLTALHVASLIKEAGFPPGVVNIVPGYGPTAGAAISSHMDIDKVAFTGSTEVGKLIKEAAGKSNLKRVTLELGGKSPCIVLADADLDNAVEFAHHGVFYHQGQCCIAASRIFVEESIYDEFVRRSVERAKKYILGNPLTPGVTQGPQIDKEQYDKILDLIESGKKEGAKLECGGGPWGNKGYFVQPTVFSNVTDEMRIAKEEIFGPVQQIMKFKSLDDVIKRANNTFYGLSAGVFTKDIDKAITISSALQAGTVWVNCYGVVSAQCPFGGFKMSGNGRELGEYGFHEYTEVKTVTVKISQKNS
Potency means the concentration at half of the fitted maximal effect; tags describe the fitted curve by direction and shape.

Potency, active:
Cc1nn(-c2ccccc2)c2c1C(c1ccc([N+](=O)[O-])cc1)C(C#N)=C(N)O2 (stereo unspecified) 14.1 µM

Potency, inconclusive:
COCCN1C=C(C(=O)OC)C(c2ccccc2Cl)C(C(=O)OC)=C1 31.6 µM [inhibitor, partial curve]
CCOc1ccccc1N1CCN(C(=O)CCCN2C(=O)c3cccc4cccc(c34)C2=O)CC1 25.1 µM [inhibitor, single point]
CC(=O)Nc1sc(-c2ccccc2)nc1-c1ccccc1 37.7 µM [inhibitor, single point]
COc1ccc(OC)c(C(=O)c2ccc(C(=O)Nc3cccc4ccccc34)cc2)c1 39.8 µM [inhibitor, single point]
O=C(Nc1cccc(-c2cn3cccnc3n2)c1)c1cccs1 22.4 µM [inhibitor, partial curve]
Cc1cc(=O)oc2cc(OCC(=O)OCC(=O)Nc3ccccc3F)ccc12 28.2 µM [inhibitor, partial curve]
O=C(Nc1ccccc1)c1ccccc1N=Cc1cccc(O)c1 25.1 µM [inhibitor, partial curve]
Cc1ccc(S(=O)(=O)NC(=O)c2cc(C)n(-c3cc(S(=O)(=O)N4CCOCC4)ccc3N3CCCC3)c2C)cc1 39.8 µM [inhibitor, single point]
CC(C)c1ccc(NC(=O)N(CCc2nc3ccccc3[nH]2)C2CCCC2)cc1 44.7 µM [inhibitor, single point]
N#C/C(=C(/O)c1cccs1)c1nc2ccccc2[nH]1 28.2 µM [inhibitor, partial curve]
COc1c2ccoc2nc2c(OC)c(OC[C@H](O)C(C)(C)O)ccc12 14.1 µM [inhibitor, partial curve]
COc1ccc(NC(=O)CSc2nnc(-c3ccccc3F)n2C2CC2)cc1S(N)(=O)=O 39.8 µM [inhibitor, single point]

Potency, inactive:
Cc1ccc(NC(=O)c2sc3nc[nH]c(=O)c3c2C)c(C)c1
Cc1ccc(C)c(NS(=O)(=O)c2cc(C(N)=O)ccc2C)c1
C/C=C/c1ccc(OCC(O)CN2CCCCCCC2)c(OC)c1 (stereo unspecified)
COc1cc(OC)cc(C(=O)NCCOc2ccccc2)c1
CCOC(=O)CN(C(=O)CSc1nnc(-c2ccncc2)n1CCCOC)c1ccccc1
CCCCCCN1C2=NCCN2c2ccccc21
CC(=O)C1=C(C)NC(SCC(=O)c2ccc(F)cc2)=C(C#N)C1CC(C)C (stereo unspecified)
CCCN(C/C=C/I)C1CCc2cccc(O)c2C1 (stereo unspecified)

Source: PubChem BioAssay AID1030 (National Center for Advancing Translational Sciences (NCATS), 2008)
